Where only a bound is given, the exact number is not on record here.

For one test, the target named is T1, IL-17RB (Homo sapiens, UniProt Q9NRM6).
T1 construct: purchased R&D systems
T1 sequence (Q9NRM6 18-502): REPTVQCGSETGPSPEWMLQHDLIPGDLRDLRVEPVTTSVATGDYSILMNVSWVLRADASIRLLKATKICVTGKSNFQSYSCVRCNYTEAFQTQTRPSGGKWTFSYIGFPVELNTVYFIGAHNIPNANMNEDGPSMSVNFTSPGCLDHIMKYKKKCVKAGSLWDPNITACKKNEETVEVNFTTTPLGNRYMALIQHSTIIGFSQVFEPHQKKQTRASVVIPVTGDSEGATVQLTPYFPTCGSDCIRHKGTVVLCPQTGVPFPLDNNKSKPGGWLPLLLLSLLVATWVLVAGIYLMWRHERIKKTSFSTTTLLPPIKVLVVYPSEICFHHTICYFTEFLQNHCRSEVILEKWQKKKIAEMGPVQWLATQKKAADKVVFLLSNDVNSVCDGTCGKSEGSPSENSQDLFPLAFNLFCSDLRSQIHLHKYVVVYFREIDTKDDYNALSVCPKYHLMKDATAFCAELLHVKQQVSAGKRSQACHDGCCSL
Nature of the test: ELISA, antigen binding specificity of bsBp (IL-17RB). Particulars: 33.5 nM; antigen coated at 2 μg/mL. Also noted: key: −: no binding; +: weak; ++: moderate; +++: strong binding; N/A refers to no binding affinity. In outline: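 Wells were coated with recombinant antigen at 2 μg/mL, and bispecific antibodies were applied at 33.5 nM for 2 h at room temperature. Standard ELISA format, followed by five PBS washes.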

In test [1] the test system is ILC2 population in human PBMC. In words: ILC2 cell population in human PBMC culture (flow cytometry). The test is classed as cell-based. Also on record: key: −: no inhibition; +: weak; ++: moderate; +++: strong inhibition. Particulars: IL-2 (10 unit/mL) and three alarmins (10 ng/ml), 5 days. In outline: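 Th2 and ILC2 populations in human PBMC culture measured by flow cytometry using standard procedures.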
(In general: Flow cytometry measures light scatter and fluorescence of single cells or particles in a stream.)

Test [2] deals with Human PBMCs. Nature of the test: CCL8 and IFNγ release from human PBMC incubated with IL-12 and IL-33. As to conditions: 5 μg/ml. The test is classed as cell-based. Also on record: key to Intensity of specific cytokine inhibition, IFNγ / Intensity of specific cytokine inhibition, CCL-8: −: no binding; +: weak; ++: moderate; +++: strong binding; N/A refers to no binding affinity. As for the experimental part:
(§1) Human PBMCs (4×10^5 per group, Ixcells) were incubated with IL-2 (10 unit/mL, PeproTech) and various alarmin/alarmin combinations to mimic the pro-inflammatory cytokines release during allergic diseases. For IL-5 and IL-13 releases, PBMCs were incubated with IL-2 and three alarmins (all 10 ng/ml) for three days. For CCL17 release, PBMC was incubated with TSLP (10 ng/ml) for 1 day. For CCL8 and IFNγ releases, PBMCs were incubated with IL-12 (10 ng/ml, Sino Biological) and IL-33 (10 ng/ml) for 1 day. Cells were pretreated with SM17 (5 μg/ml) or IgG4 isotype control (5 μg/ml) for an hour before the addition of cytokines.
(§2) Supernatants were collected and the cytokine concentration were measured by ELISA kits (R&D systems). These established assays were used to test the potency of and SM17 and bsBps. […] Results were expressed in absolute amount in pg/ml.
(§3) SM17, three different SM17-anti-IL33 bsBps and three different SM17-anti-TSLP bsBps (all at 5 μg/ml) were added to human PBMC cultures under conditions that shall induce the release of IFNγ, CCL8, CCL17 and IL-5 as described in Example 11 above. The levels of different cytokines and chemotactic factors in supernatant obtained in induced PBMC were evaluated using standard ELISA methods.

In test [3] the target is T2, IL-33 (Homo sapiens, UniProt O95760).
T2 construct: purchased R&D systems
T2 sequence (O95760 95-270): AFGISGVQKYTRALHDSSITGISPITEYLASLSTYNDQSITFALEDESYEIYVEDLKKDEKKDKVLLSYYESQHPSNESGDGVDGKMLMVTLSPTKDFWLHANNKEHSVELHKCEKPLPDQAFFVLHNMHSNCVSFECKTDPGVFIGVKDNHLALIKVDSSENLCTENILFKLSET
In words: ELISA, antigen binding specificity of bsBp (IL-33). Also on record: key: −: no binding; +: weak; ++: moderate; +++: strong binding; N/A refers to no binding affinity. As to conditions: 33.5 nM; antigen coated at 2 μg/mL. As for the experimental part: (§4) Binding specificities of bsBp were evaluated by standard ELISA assays. Briefly, ELISA strips were coated with the respective target antigens, including IL17RB, IL-33, or TSLP (R&D systems) at a final concentration of 2 μg/mL. Bispecific antibodies were added at 33.5 nM to ELISA strips coated with the desired antigen. After incubation under room temperature for 2 hours, ELISA strips were washed five times with PBS. […] No result is provided for SM17-human TSLPR as the yield was too low to be detected.

The target of test [4] is T2, IL-33. Nature of the test: Bio-Layer Interferometry (Octet), binding kinetics of bsBp to human IL-33. On the procedure: (§5) The binding affinity of bsBp to the targeted alarmins was determined using a bio-Layer Interferometry analysis (Octet ReD96 system, Sartorius). bsBp or SM17 (20 μg/mL) was immobilized on biosensors via binding to anti-human Fab CH1 region; serially diluted human IL33 and TSLP (158.7 nM, 79.4 nM, 39.7 nM) (R&D systems) were added to plot the association and dissociation curve according to the manufacturer's specification. Biosensors immobilized with irrelevant antibody (SM03, anti-human CD22 chimeric IgG1 antibody, SinoMab BioScience Limited, 20 μg/mL) were used as control reference.
Background: In BLI a coated tip is dipped into the sample, and binding shifts an interference pattern.

Test [5] relates to Human PBMCs. In words: IL-5 and IL-13 release from human PBMC incubated with IL-2 and three alarmins. The test is classed as cell-based. Particulars: 5 μg/ml. On the procedure: as §1, §2, §3
In test [6] the test system is Th2 cell population in human PBMC. Nature of the test: Th2 cell population in human PBMC culture (flow cytometry). The test is classed as cell-based. Also noted: key: −: no inhibition; +: weak; ++: moderate; +++: strong inhibition. Particulars: IL-2 (10 unit/mL) and three alarmins (10 ng/ml), 5 days. The source says: While alarmins are known to work in concert to enhance ILC2 and Th2 cell functions such as increase in cell population, steroids such as Dexamethasone (Dex) can negate these effects, resulting in the mitigation of type 2 immune responses [Jia, Yi et al. American Journal Of Respiratory Cell And Molecular Biology, vol. 55, 5 (2016): 675-683]. ILC2 and Th2 cell population can be determined by flow cytometry (BD FACSVerse) following standard procedures known to those skilled in the art.

Test [7] deals with Normal human DCs. In words: Dendritic cell potency assay, TSLP-induced CCL17 production. The test is classed as cell-based. Also on record: key: −: no binding; +: weak; ++: moderate; +++: strong binding; N/A refers to no binding affinity. Particulars: 5 μg/mL; TSLP 10 ng/mL, 5 days. The source says:
(§6) TSLP from inflamed epithelium promotes maturation of dendritic cells (DCs) to prime Th2 responses via CCL17, which induces chemotaxis of CD4+ T cells to mediate inflammation (Kitajima and Ziegler. 2013. “Cutting Edge: Identification Of The Thymic Stromal Lymphopoietin-Responsive Dendritic Cell Subset Critical For Initiation Of Type 2 Contact Hypersensitivity”. J Immunol 191: 4903-4907; Bleck et al. 2015. “Co-Expression Of Type 2 Immune Targets In Sputum-Derived Epithelial And Dendritic Cells From Asthmatic Subjects”. J Allergy Clin Immunol 136: 619-627.e5). Normal human DCs were obtained from Lonza (Bend, OR). The DCs were cultured in LGM-3 medium (Lonza). TSLP (10 ng/mL) is added into the DC cultures for 5 days in the presence of 5 μg/mL of SM17, IgG4 isotype control (Sino Biological), SM17-TSLPR bsBp (SM17 fused with TSLP receptor extracellular domain) or SM17-anti-TSLP bsBp 2 #. The supernatants are harvested and the levels of CCL17 measured by ELISA following the manufacturer's specification (R&D systems).

Test [8] has as its target T3, TSLP (Homo sapiens, UniProt Q969D9).
T3 construct: purchased R&D systems
Nature of the test: Bio-Layer Interferometry (Octet), binding kinetics of bsBp to human TSLP. On the procedure:
as §5

In test [9] the test system is Human PBMCs. In words: CCL17 release from human PBMC incubated with TSLP. The test is classed as cell-based. Also noted: key to Intensity of specific cytokine inhibition, CCL-17: −: no binding; +: weak; ++: moderate; +++: strong binding; N/A refers to no binding affinity. Particulars: 5 μg/ml; human PBMC. On the procedure:
as §1, §2, §3

Test [10] deals with T3, TSLP. In words: ELISA, antigen binding specificity of bsBp (TSLP). Also on record: key: −: no binding; +: weak; ++: moderate; +++: strong binding; N/A refers to no binding affinity. Particulars: 33.5 nM; antigen coated at 2 μg/mL. On the procedure:
as §4
Background: ELISA stands for enzyme-linked immunosorbent assay.

Test [11] relates to Normal human DCs. Nature of the test: Dendritic cell potency assay, TSLP-induced CCL17 production. Particulars: 5 μg/mL; TSLP 10 ng/mL, 5 days. The test is classed as cell-based.
From the text: as §6

The mark [12] stands for this setting: bsBp or SM17 immobilized at 20 μg/mL.

B1: SM17-anti IL-33 3# bsBp: bispecific binding protein, SM17 IgG fused to anti-IL-33 scFv; HC SEQ ID NO: 65, LC SEQ ID NO: 33 (antibody)
heavy: MDLLHKNMKHLWFFLLLVAAPRWVLSQVQLVQSGAEVKKPGASVKVSCKASGYTFISYWMNWVRQAPGQGLEWMGRIDPYDSEIQYNQKFKDRVTMTRDTSISTAYMELSRLRSDDTAVYYCARSGGFDWFAYWGQGTLVTVSSASTKGPSVFPLAPCSRSTSESTAALGCLVKDYFPEPVTVSWNSGALTSGVHTFPAVLQSSGLYSLSSVVTVPSSSLGTKTYTCNVDHKPSNTKVDKRV[sequence of human IgG4 Fc with S228P (EU numbers) not given]GGGSGGGGSGGGGSEVQLLESGGGLVQPGGSLRLSCAASGSTFSDYYMNWVRQAPGKGLEWVSSISRYSSYIYYADSVKGRFTISRDNSKNTLYLQMNSLRAEDTAVYYCARDIGGMDVWGQGTLVTVSSGGGGSGGGGSGGGGSGGGGSQSVLTQPPSASGTPGQRVTISCTGSSSNIGAVYDVHWYQQLPGTAPKLLIYRNNQRPSGVPDRFSGSKSGTSASLAISGLRSEDEADYYCQTYDSSRWVFGGGTKLTVL
light: DIQMTQSPSSLSASVGDRVTITCRASENINSNLAWYQQKPGKAPKLLLYDVTNLADGVPSRFSGSGSGTDYTLTISSLQPEDFATYYCQHFWGPPYTFGGGTKVEIKRTVAAPSVFIFPPSDEQLKSGTASVVCLLNNFYPREAKVQWKVDNALQSGNSQESVTEQDSKDSTYSLSSTLTLSKADYEKHKVYACEVTHQGLSSPVTKSFNRGEC
As to B1, the “Intensity of specific antigen binding, IL-17RB coated on ELISA strips” value with IL-17RB was “+++”. In test [1], the “Cell proliferation inhibition, ILC2” value is on record as “+++”. Also, the “CCL8 release, suppression effect as compared to SM17 (in words)” value in the test with Human PBMCs [2] was “stronger suppression effect”. In addition, in the test with Human PBMCs [2] (human PBMC), the “Intensity of specific cytokine inhibition, CCL-8” value was “++” and the “Intensity of specific cytokine inhibition, IFNγ” value is “+”. Further, the “Intensity of specific antigen binding, IL-33 coated on ELISA strips” value in the test with IL-33 [3] is “+++”. In addition, the Kdis with IL-33 [4] was <1e-07 s⁻¹. The Ka in the test with IL-33 [4] (setting [12]) amounted to 22700 M⁻¹ s⁻¹. Moreover, the “IL-5 release, suppression effect as compared to SM17 (in words)” value in the test with Human PBMCs [5] is “strongest suppression effect”. The “Cell proliferation inhibition, Th2” value in test [6] was “+++”.

B2: SM17-anti TSLP 2# bsBp: bispecific binding protein, SM17 IgG fused to anti-TSLP scFv; HC SEQ ID NO: 61, LC SEQ ID NO: 33 (antibody)
heavy: MDLLHKNMKHLWFFLLLVAAPRWVLSQVQLVQSGAEVKKPGASVKVSCKASGYTFISYWMNWVRQAPGQGLEWMGRIDPYDSEIQYNQKFKDRVTMTRDTSISTAYMELSRLRSDDTAVYYCARSGGFDWFAYWGQGTLVTVSSASTKGPSVFPLAPCSRSTSESTAALGCLVKDYFPEPVTVSWNSGALTSGVHTFPAVLQSSGLYSLSSVVTVPSSSLGTKTYTCNVDHKPSNTKVDKRV[sequence of human IgG4 Fc with S228P (EU numbers) not given]GGGSGGGGSGGGGSQVQLVQSGAEVKKPGASVKVSCKASGYIFTDYAMHWVRQAPGQGLEWMGTFIPLLDTSDYAQKFQGRVTMTADTSTSTAYMELRSLRSDDTAVYYCARMGVTHSYVMDAWGQGTLVTVSSGGGGSGGGGSGGGGSGGGGSEIVLTQSPGTLSLSPGERATLSCRASQPISISVHWYQQKPGQAPRLLIYFASQSISGIPDRFSGSGSGTDFTLTISRLEPEDFAVYYCQQTFSLPYTFGQGTKVEIK
light: B1 light
As to B2, the “Potency, inhibition of CCL17 release on dendritic cells” value in the test on Normal human DCs [7] is recorded as “+”. Besides, the “Intensity of specific antigen binding, IL-17RB coated on ELISA strips” value with IL-17RB is recorded as “+++”. Moreover, the “Cell proliferation inhibition, ILC2” value in [1] is given as “+++”. For the same molecule, the Kdis with TSLP [8] was <1e-07 s⁻¹. The Ka with TSLP [8] (setting [12]) is 374000 M⁻¹ s⁻¹. The “Intensity of specific cytokine inhibition, CCL-17” value in the test with Human PBMCs [9] is recorded as “+”. The “Intensity of specific antigen binding, TSLP coated on ELISA strips” value with TSLP [10] is on record as “++”. In the test with Normal human DCs [11], the “TSLP-induced CCL17 production in DCs (in words)” value is “efficient in suppressing TSLP-induced CCL17 production”. For the same molecule, the “Cell proliferation inhibition, Th2” value in test [6] is on record as “+++”.

Values taken from patent US20240409647A1, “BISPECIFIC BINDING PROTEINS AGAINST ALARMINS AND USES THEREOF” (SINOMAB BIOSCIENCE LIMITED, priority 2022, published 2024).
